Experimental data published in ChEMBL document CHEMBL4888484, “Replenishing the malaria drug discovery pipeline: Screening and hit evaluation of the MMV Hit Generation Library 1 (HGL1) against asexual blood stage Plasmodium falciparum ,using a nano luciferase reporter read-out” (2022).
Screen size: about 150,000 compounds; about 540 (0.36%) showed an effect of 50% or more. The list shows a part of the results.

system: Plasmodium falciparum; experiment: Primary screen in NF54 nanoGlo assay, in single point, at 2uM, 72h; a lower Z score goes with more inhibition; assay type: functional, Erythrocyte; settings: timepoint 72 hour

| SMILES | % Inhibition [%] | Z score |
| --- | --- | --- |
| COc1ccc(-c2noc(-c3ccc(N4CCN(c5ncccn5)CC4)nc3)n2)cc1 | 1 | -0.15 |
| CC(=O)c1cccc(N[C@@H](C)C(=O)Nc2nc(C)c(C)s2)c1 | 9 | -1.22 |
| CN(C(=O)Cc1ccc(NC(=O)[C@@H]2COCCO2)cc1)c1ccccc1 | -16 | 2.2 |
| O=C(NCC(F)(F)C1(O)CCCCC1)c1ccc(O)nc1 | -20 | 2.09 |
| O=C(N[C@H]1CCN(CCCc2ccccc2)C1=O)c1cc[nH]n1 | -7 | 1.16 |
| C[C@H](NCCC(=O)Nc1nccs1)c1nc2c(s1)CCCC2 | 18 | -2.32 |
| CCCn1cc(CN/C(=N\c2ccccc2OC)NC(=O)c2ccccc2F)c(C)n1 | 3 | -0.6 |
| CN1CCC(N2CCN(S(=O)(=O)c3cc(-c4nc(C(C)(C)C)cs4)cs3)CC2)CC1 | 8 | -1.1 |
| CCn1ccnc1CN1CCCC12CCN(c1cc(C)nc3ccccc13)CC2 | 0 | -0.01 |
| CN(C)CCN(C)C1CCN(c2nccc3ccccc23)CC1 | -2 | 0.32 |
| COCCNC(=O)c1coc(CN(Cc2ccc(C)cc2)[C@@H](C)C(C)C)n1 | -5 | 0.68 |
| O=C(c1snc(O)c1Cl)N1CCC(CF)CC1 | -20 | 2.65 |
| CC(C)(CO)N1CCN(C(=O)c2nc3ccccc3cc2Cl)CC1 | 20 | -2.59 |
| C#CCN(C(=O)c1ccc(C(=O)O)s1)C1CCCC1 | -11 | 1.82 |
| CCn1ccc2ccn(Cc3nc(-c4ccc(OC)cc4)no3)c(=O)c21 | 5 | -1.01 |
| CN1CC[C@@]2(CCC1=O)CN(C(=O)Nc1ccc3c(c1)OCO3)CCN2C | -8 | 1.5 |
| CC(=O)N[C@@H]1c2ccccc2C2(CCN(C(=O)c3csc(C)n3)CC2)[C@H]1OCc1ccncc1 | -15 | 2.58 |
| CCc1nc2cc(OC)c(OC)cc2c(=O)n1CCNC(=O)c1cccnc1 | -8 | 1.01 |
| Cc1noc(-c2cc(S(=O)(=O)Nc3ccccc3)c(C)s2)c1C | -3 | 0.34 |
| O=C(CCn1cnc2ccccc2c1=O)N1CCC[C@H](Oc2ncccn2)C1 | -6 | 0.77 |
| CCN(CC)S(=O)(=O)NCc1cc(=O)n(-c2ccccc2)n1C | -2 | 0.24 |

| SMILES | % Inhibition [%] | Z score |
| --- | --- | --- |
| Cc1nc(C)c(C(=O)ON2C(=O)CCC2=O)s1 | -6 | 1.02 |
| COCCN(Cc1nccs1)C(=O)[C@@H]1CCCN1S(C)(=O)=O | -25 | 2.19 |
| CC(C)CCOc1ccc(C(=O)C(CCC(CN2CCOCC2)C(=O)c2ccc(OCCC(C)C)cc2)CN2CCOCC2)cc1 (stereo not drawn) | -5 | 0.75 |
| Cc1ccc(Oc2cc(C#N)c(C#N)cc2N2CCCCC2)cc1C | -5 | 0.64 |
| Cc1csc([C@@H](C#N)C(=O)c2cnc3ccccn23)n1 | 24 | -2.79 |
| C=Cc1ccc(N(C)C[C@H]2CC(=O)N(C(C)(C)C)C2)nc1 | 0 | -0.03 |
| CC(O)CC1CCCN1C(=O)CCN1c2ccccc2CCC1C (stereo not drawn) | 2 | -0.21 |
| O=c1[nH]ccc2ccc(-n3ccc(-c4cccnc4)n3)cc12 | -8 | 1.45 |
| Cc1ccc(F)c2c1N(C(=O)C[C@H]1CCS(=O)(=O)C1)CCC2 | 0 | -0.09 |
| CCc1ccc(CN(C)Cc2cccnc2)o1 | -2 | 0.25 |
| Cc1noc(C)c1CC(=O)Nc1nc(C(=O)NCc2ccc3c(c2)OCO3)co1 | 6 | -0.89 |
| Cn1ncc2c(N3CCOCC3)nc(C(=O)NCc3ccccc3)nc21 | -7 | 0.68 |
| CC[C@](C)(NCc1ccc(F)c(Cl)c1)C(N)=O | -6 | 0.63 |
| COc1ccccc1C(=O)NCC(=O)N[C@@H](C)C(c1ccccc1)c1ccccc1 | 1 | -0.19 |
| c1ccc(N2CCOCC2)c(-c2nc(-c3ccsc3)no2)c1 | -1 | 0.06 |
| Cc1ccc(CN2CC[C@H](CO)[C@H](N(C)C)C2)s1 | 3 | -0.39 |
| COc1cc2nc(-c3ccc(C)o3)cc(C(=O)NCc3cc(C)cc(C)c3)c2cc1OC | -12 | 1.22 |
| CC(C)(CNC(=O)c1c[nH]nc1C1CC1)c1cccs1 | -2 | 0.24 |
| O[C@@H](CNCc1cnc(N2CCOCC2)nc1)c1ccccc1 | -9 | 1.02 |
| COCc1nc2nccc(-c3cccc4ccccc34)n2n1 | -6 | 1.14 |
| O=C1c2ccccc2C(=O)C1(c1ccc(N2CCCCC2)cc1)C1(c2ccc(N3CCCCC3)cc2)C(=O)c2ccccc2C1=O | -20 | 1.83 |

| SMILES | % Inhibition [%] | Z score |
| --- | --- | --- |
| CCN(C(=O)c1ccoc1)c1nc2cc(Cl)ccc2s1 | -8 | 0.7 |
| O=c1c2c(ncn1Cc1ccccc1)c1ccccc1n2Cc1ccccc1 | -3 | 0.38 |
| CCCCCN1CC(=O)N[C@@H]1c1cscn1 | -12 | 1.53 |
| COc1cccc(CC(C)NC(=O)NC2CCCn3nc(C)nc32)c1 (stereo not drawn) | -12 | 1.21 |
| C[C@@H](CNc1cncc(C(N)=O)n1)c1nc2ccccc2s1 | -11 | 2.17 |
| CC1CCC(C)N1C(C)c1nc(-c2cscn2)no1 (stereo not drawn) | -6 | 0.62 |
| COc1ccc2oc(CN3CCC[C@H](CCO)C3)cc2c1 | -5 | 0.65 |
| Cn1ccnc1[C@@H]1[C@@H](C(=O)Nc2ccnc(C(C)(C)C)n2)CCC(=O)N1C1CC1 | 4 | -0.65 |
| OCCn1ncnc1-c1scc2c1OCCO2 | -21 | 2.27 |
| Cc1noc(C)c1N(C)CCn1cncn1 | -14 | 1.6 |
| O=C(c1cnccn1)N1CC[C@H](CCOc2ccccc2)C1 | -4 | 0.63 |
| O=C1NCC2(CN(C(=O)c3coc4ccccc34)C2)O1 | 6 | -0.69 |
| CN(C)C[C@H]1CN(C(=O)c2ccc(F)c(Cl)c2)CC12CCCCC2 | 2 | -0.42 |
| COCc1noc(CNC(=O)Nc2cccc(CN3CCCC[C@@H]3C)c2)n1 | -8 | 1.49 |
| Cc1nscc1-c1nc([C@H]2CCS(=O)(=O)C2)no1 | 6 | -0.77 |
| COc1c(C)cnc(CN2CCN(Cc3ccc(C)o3)[C@@H](CCO)C2)c1C | -5 | 0.71 |
| CC(C)(C)OC(=O)N[C@H](C(=O)O)c1ccccc1 | 4 | -0.5 |
| O=S1(=O)C[C@H](NC2CC2)[C@@H](S(=O)(=O)c2ccccc2)C1 | -7 | 0.82 |
| Cc1oc(C(C)C)cc1C(=O)N1CCC2(CC1)CC(=O)N(Cc1ccccc1)C2 | -6 | 0.96 |
| O=C(CCc1ccco1)Nc1nc(-c2cc(F)ccc2F)cs1 | -18 | 1.52 |
| CCNC(=O)N[C@H]1CCN(c2nc(O)cc(C(C)C)n2)C1 | -11 | 1.19 |

| SMILES | % Inhibition [%] | Z score |
| --- | --- | --- |
| CCc1c(N[C@H]2CCN(C)C2=O)cnn1C(CC)CC | 1 | -0.14 |
| COc1ccc(C(CC(=O)c2ccccc2)C2C(=O)CC3CCC2N3C)cc1 (stereo not drawn) | 2 | -0.24 |
| CN(C)Cc1csc(-c2nc3c(cnn3-c3ccccc3)[nH]2)c1 | 4 | -0.69 |
| Cc1cnn(C2CCN(Cc3nc4ccccc4c(C)c3Cl)CC2)c1 | -11 | 2.16 |
| Cc1c(F)cccc1NC(=O)N1CCN(C2=CC3=N[C@@H](C)CN3C=N2)CC1 | 57 | -7.99 |
| CCN(Cc1ccccc1)c1ncc(S(=O)(=O)c2cc(Cl)ccc2OC)c(N)n1 | -6 | 0.83 |
| N#Cc1cccnc1N[C@H]1CCc2nnc(-c3ccccc3)n2C1 | -7 | 0.82 |
| Cc1ccc(-c2nc(CC(=O)Nc3nccs3)cs2)o1 | 2 | -0.14 |
| Cc1ccc(CCN(Cc2ccco2)C(=O)C2CCNCC2)cc1 | 10 | -1.36 |
| Cc1nn(C)c2nc(-c3cccs3)cc(C(=O)N3CCN(Cc4ccccc4)CC3)c12 | 32 | -3.62 |
| CC(C)Oc1cccc(N(CC(=O)N2CC(=O)Nc3ccccc32)S(C)(=O)=O)c1 | 1 | -0.1 |
| Cc1ccc2c(n1)OCCN2Cc1noc(C2CC2)n1 | -10 | 0.84 |
| CN1CCN(CC2(O)CCC3(CCN(C(=O)c4c(F)cccc4F)CC3)CC2)CC1 | -4 | 0.67 |
| C#CCCC1(CCC(=O)N2c3ccncc3C[C@@H]2C)N=N1 | -5 | 0.66 |
| CCCCc1nc(N2CCCN(C(=O)Nc3ccc(C)cc3C)CC2)c2c(-c3ccccc3)noc2n1 | -6 | 0.91 |
| O=C1NCC2(CN(C(=O)Cc3ccc(F)c(F)c3)C2)O1 | -1 | 0.2 |
| CCn1nccc1-c1nc(N)nc(C)c1Cl | -10 | 1.06 |
| CCOc1ccc(S(=O)(=O)Nc2cc(C(=O)O)cnc2N2CCC(Cc3ccccc3)CC2)cc1 | 3 | -0.26 |
| O=C(Cc1c(F)cccc1Cl)NC1CCC2OCCOC2C1 (stereo not drawn) | -7 | 1.29 |
| CCCc1cc(=O)[nH]c(C(=Cc2c(C3CC3)cnn2C)CC)n1 | -25 | 4.77 |
| COc1ccc(C2=NN(C(=O)CN(C)C(=O)c3cccc(F)c3)[C@H](c3ccc4c(c3)OCO4)C2)cc1 | -14 | 1.31 |
